Screen size: about 410,000 compounds; about 6,400 (1.6%) were called active. Inconclusive results, whose numbers are uncertain, are shown with a selection of clear calls. Calls follow the shape of the dose curve; as a rule, active = well fitted inhibition curve with a large enough effect; inconclusive = small, poorly fitted or top-dose-only effect; inactive = no such curve, though single readings can be large or run the other way. Potencies of inconclusive entries are left out as doubtful fits.
Target: Glucagon-like peptide 1 receptor (Homo sapiens) (UniProt P43220)
Assay: qHTS of GLP-1 Receptor Inverse Agonists (Inhibition Mode); also: nearly all actives have a fitted effect of over 55% in size
Conditions: HEK293 GLP-1R CRE-luciferase, luminescence, 24 h, GLP-1R form is constitutively active; activity change, negative = inhibition: at 38.3 µM (top of the series) unless noted
Summary of the method: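 Stable HEK293 clone (constitutively active GLP-1R + cAMP-response luciferase); 200 cells/uL plated, 12 h pre-culture, compound 24 hr, 37 deg C/5% CO2; detection reagent 12 min RT; luminescence.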
% is scaled to controls: 0 for no effect and ±100 for the full control effect; potency is read from the fitted curve at half-maximal effect; tags tell the direction and shape of the fitted curve.

Chain of UniProt P43220 (P43220 whole entry, looked up): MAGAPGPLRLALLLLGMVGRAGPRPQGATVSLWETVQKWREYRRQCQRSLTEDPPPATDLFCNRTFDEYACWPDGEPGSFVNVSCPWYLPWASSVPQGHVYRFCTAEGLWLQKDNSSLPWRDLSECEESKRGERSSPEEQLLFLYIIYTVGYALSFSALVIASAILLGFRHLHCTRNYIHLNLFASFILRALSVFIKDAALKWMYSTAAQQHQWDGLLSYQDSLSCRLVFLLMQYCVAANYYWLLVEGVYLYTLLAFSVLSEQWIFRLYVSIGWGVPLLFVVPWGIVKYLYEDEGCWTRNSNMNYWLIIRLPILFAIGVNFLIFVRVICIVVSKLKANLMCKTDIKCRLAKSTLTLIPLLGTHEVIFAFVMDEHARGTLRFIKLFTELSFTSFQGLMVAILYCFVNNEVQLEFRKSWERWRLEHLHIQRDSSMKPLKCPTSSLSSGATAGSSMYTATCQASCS

| SMILES | Potency | activity change, negative = inhibition |
| --- | --- | --- |
| CCCCCCCCCCCCN1[C@@H](CC(=O)OC)c2cc(F)cc(F)c2S1(=O)=O | inconclusive [inhibitor, partial curve, poor fit] |  |
| CCOc1ccc(CCN2C(=S)N([C@@H](CC(C)C)CN3CCC[C@@H]3CN3C(=S)NC[C@@H]3CC(C)C)C[C@@H]2Cc2ccc(O)cc2)cc1 | inconclusive [inhibitor, single point] |  |
| COc1ccc(-c2cc(C(=O)Oc3ccccc3)c3cc(C)ccc3n2)cc1 | inconclusive [inhibitor, single point] |  |
| O=C(N/N=C/c1c[nH]c2ccccc12)c1cccc([N+](=O)[O-])c1 | inconclusive [inhibitor, partial curve, poor fit] |  |
| COc1ccc(C2=NC3(CCCCC3)N(CC(=O)Nc3ccc(C(C)C)cc3)C2=O)cc1 | inconclusive [inhibitor, partial curve, poor fit] |  |
| Cc1nc2cc3ccccc3cc2n1C |  | inactive: 14.2% |
| COc1ccc(OC)c(/C=N/NC(=O)c2csc3ccccc23)c1 |  | inactive: -3.6% |
| CSc1ccc(C(=O)C2CCCN(C(=O)c3nonc3C)C2)cc1 (stereo not given) | inconclusive [inhibitor, partial curve] |  |
| Cc1ccc(O)c(C(=O)c2cnc3c(c2)CN(CCC(C)C)C(=O)N3)c1 | inconclusive [inhibitor, single point] |  |
| Cc1cc(OC(C)C(=O)Nc2ccccc2C(=O)N2CCCC2)ccc1Cl (stereo not given) | inconclusive [inhibitor, partial curve] |  |
| COc1ccc(C(=O)/C=C2\Sc3ccccc3N2C)cc1 | inconclusive [inhibitor, partial curve] |  |
| C=COc1ccc(N2C(=O)c3ccccc3OC2C)cc1 (stereo not given) | inconclusive [inhibitor, partial curve, poor fit] |  |
| Cc1cc(C)c(/C([O-])=C(/C(=S)Nc2ccc(SC(F)F)cc2)[n+]2ccccc2)cc1C | inconclusive [inhibitor, single point] |  |
| Cc1ccc(NC(=O)NCCN2C(=O)C3C4C=CC(C4)C3C2=O)cc1 (stereo not given) | inconclusive [inhibitor, single point] |  |
| FC(F)(F)c1ccccc1Cc1c(-c2ccccc2)nc2c3ccccc3ccn12 | inconclusive [inhibitor, single point] |  |
| CCOC(=O)C1CCCN(C(=S)Nc2cccc(Cl)c2)C1 (stereo not given) | inconclusive [inhibitor, single point] |  |
| O=C(Nc1nc(-c2cccs2)cs1)c1ccc([N+](=O)[O-])o1 |  | inactive: 55.2% |
| O=C(COC(=O)c1ccccc1C(=O)c1ccccc1)Nc1ccc(SC(F)F)cc1 | inconclusive [inhibitor, partial curve] |  |
| Cc1cccc(C(=O)OCC(=O)N2CCc3ccccc3C2)c1O | inconclusive [inhibitor, single point] |  |
| CCOC(=O)C1(Cc2cccc(F)c2)CCN(Cc2c(C)nn(CC)c2C)CC1 | inconclusive [inhibitor, partial curve, poor fit] |  |
| O=C(/C=C/c1ccc(Cl)cc1Cl)Nc1cccc(S(=O)(=O)NC2=NCCC2)c1 | inconclusive [inhibitor, single point] |  |
| c1ccc(CNc2nc(N3CCN(Cc4ccccc4)CC3)nc3ccccc23)cc1 | active: 3.98 µM |  |

| SMILES | Potency | activity change, negative = inhibition |
| --- | --- | --- |
| CC1(c2ccccc2)NC(=O)N(CC(=O)Nc2ccc([N+](=O)[O-])cc2)C1=O (stereo not given) | inconclusive [inhibitor, single point] |  |
| Nc1nonc1-n1nnc(C(=O)N/N=C/c2ccccc2O)c1CN1CCCC1 | inconclusive [inhibitor, single point] |  |
| N=c1c2c(-c3ccccc3)c(-c3ccccc3)n(Cc3ccco3)c2ncn1CCCO | inconclusive [inhibitor, single point] |  |
| Cc1cc2nc(-c3ccc(SCC(=O)N4CCOCC4)nc3)[nH]c2cc1C | inconclusive [inhibitor, single point] |  |
| CC(C)(C)OC(=O)NCCCC[C@H](NC(=O)c1nc[nH]c1C(=O)N1CCN(c2ccccc2)CC1)C(=O)OC(C)(C)C |  | inactive: -15.5% |
| Cc1ccc(NC(=O)c2ccc3c(c2)OCCO3)cc1C | inconclusive [inhibitor, partial curve, poor fit] |  |
| O=C(Nc1ccc2oc(-c3cccc4c(Br)cccc34)nc2c1)c1ccc(F)cc1 |  | inactive: 3.64% |
| COc1cccc(N2CCN(C(=O)c3ccc4ccccc4c3)CC2)c1 | inconclusive [inhibitor, single point] |  |
| Cc1ccc(COc2cccc3c2CCN(Cc2ccc(F)cc2)C3=O)cc1 | inconclusive [inhibitor, partial curve] |  |
| Cc1nc2ccc(NC(=O)C3CCCCC3)cc2s1 |  | inactive: 7.04% |
| CCC(=O)NC(c1cccs1)c1ccc2cccnc2c1O (stereo not given) | inconclusive [inhibitor, full curve, poor fit] |  |
| Cn1c(=O)c2c(-c3ccccc3)n3c(c2n(C)c1=O)C(c1ccccc1[N+](=O)[O-])Nc1ccccc1-3 (stereo not given) |  | inactive: 4.85% |
| CCOC(=O)C1CCCN(c2c(C(=O)c3ccccc3)cnc3ccc(OC)cc23)C1 (stereo not given) | inconclusive [inhibitor, single point] |  |
| CC1CCCCC1NC(=O)CCN1C(=O)C2C3C=CC(C3)C2C1=O (stereo not given) |  | inactive: 3.21% |
| COc1nc(NCCc2ccc(OC)c(OC)c2)nc(Nc2ccccc2)n1 | inconclusive [inhibitor, single point] |  |
| COc1cccc(Oc2ccc(C(F)(F)F)cc2N)c1 | inconclusive [inhibitor, single point] |  |
| CN(C)C=NC(=O)c1[nH]c2ccc(Cl)cc2c1-c1ccccc1 | active: 11.2 µM |  |
| Cn1c(-c2ccccc2)n[nH]c1=S |  | inactive: 7.1% |
| CC(NC(=O)Cc1ccc(S(=O)(=O)N2CCOCC2)s1)c1ccc(Cl)cc1Cl (stereo not given) | inconclusive [inhibitor, single point] |  |
| O=C(CCc1ccccc1)Nc1cccc(S(=O)(=O)N2CCOCC2)c1 |  | inactive: 13.6% |
| CCOc1ccccc1NS(=O)(=O)c1ccc2c(c1)CC(C)N2C(=O)C1CCC1 (stereo not given) | inconclusive [inhibitor, single point] |  |
| O=C(O)CCC(=O)CCC(=O)c1ccc(Cl)cc1 |  | inactive: 1.02% |

| SMILES | Potency | activity change, negative = inhibition |
| --- | --- | --- |
| O=C(/C=C/c1ccccc1)CCN1CCCCC1 | inconclusive [inhibitor, single point] |  |
| COCCN(C(=O)COC(=O)CCSc1ccc(F)cc1)c1c(N)n(Cc2ccccc2)c(=O)[nH]c1=O |  | inactive: 4.36% |
| CC(C)(C)C1COc2ccccc2N1C(=O)c1cccc(Cl)c1 (stereo not given) |  | inconclusive: -41.5% [inhibitor] |
| COc1ccccc1NS(=O)(=O)c1cc(C(=O)NCCC(C)C)ccc1F | inconclusive [inhibitor, partial curve, poor fit] |  |
| c1ccc(-c2nc3nc4ccccc4nc3n2CC2CCCO2)cc1 (stereo not given) | inconclusive [inhibitor, partial curve] |  |
| Cc1ccccc1C(=O)NCc1nnc(SCC(=O)N2c3ccccc3Sc3ccccc32)n1C | inconclusive [inhibitor, single point] |  |
| Cc1cccc(C)c1Nc1nc2ccccc2o1 | inconclusive [inhibitor, single point] |  |
| COc1ccc(NC(=O)c2ccc(COc3ccccc3Br)o2)cc1OC | inconclusive [inhibitor, partial curve, poor fit] |  |
| CN(c1ccccc1)S(=O)(=O)c1cccc2ccccc12 | inconclusive [inhibitor, partial curve, poor fit] |  |
| O=C(CSc1nc2ccccc2nc1Cc1ccc(Cl)cc1)N1CCCc2ccccc21 |  | inactive: -4.95% |
| CCn1cnc2cc(NCc3ccc(Cl)cc3)ccc21 | inconclusive [inhibitor, single point] |  |
| COc1ccccc1OCCSc1nc2ccc([N+](=O)[O-])cc2s1 | inconclusive [inhibitor, single point] |  |
| CC1CC(C)CN(C(=O)C2CCN(S(=O)(=O)c3c(Cl)cccc3Cl)CC2)C1 (stereo not given) | inconclusive [inhibitor, partial curve, poor fit] |  |
| COc1cccc(C(=O)N(Cc2cccnc2)c2nc3c(OC)ccc(C)c3s2)c1OC | inconclusive [inhibitor, full curve, poor fit] |  |
| Cc1ccc(C(=O)NNC(=S)NC(=O)c2ccc(Cl)cc2Cl)cc1 | inconclusive [inhibitor, partial curve] |  |
| COc1ccc(-c2ccc(C(=O)Nc3ccccc3)c3occc23)c(C)c1 | inconclusive [inhibitor, single point] |  |
| CC(C)(C)OC(=O)N1CCN(c2ccc(NC(=O)Cn3nnc(-c4ccccc4)n3)cc2)CC1 | inconclusive [inhibitor, partial curve, poor fit] |  |
| COc1cc(NC(=O)CCN2CCN(Cc3ccccc3)CC2)cc(OC)c1 |  | inactive: -6.69% |
| COCC(=O)N1CCC(Oc2ccc(C(=O)N(C)CCCC3CCCC3)cc2)CC1 | inconclusive [inhibitor, full curve] |  |
| CN(c1ccccc1)S(=O)(=O)c1nnc(NC(=O)C2CCCCC2)s1 | inactive |  |
| O=C(CSc1nnc(-c2ccncc2)n1-c1ccccc1)N1CCN(c2ccc(Cl)cc2)CC1 | inconclusive [inhibitor, full curve, poor fit] |  |

— PubChem BioAssay AID624417 (National Center for Advancing Translational Sciences (NCATS), 2012)
